# Measured values published in PubChem BioAssay AID651820 (National Center for Advancing Translational Sciences (NCATS), 2012).
# Screen size: about 340,000 compounds; about 12,000 (3.5%) were called active. Inconclusive results, whose numbers are uncertain, are shown with a selection of clear calls. Calls follow the shape of the dose curve; as a rule, active = well fitted inhibition curve with a large enough effect; inconclusive = small, poorly fitted or top-dose-only effect, or another doubt; inactive = no such curve, though single readings can be large or run the other way. Potencies of inconclusive entries are left out as doubtful fits.
# Assay: qHTS Assay for Inhibitors of Hepatitis C Virus (HCV)
# Details: Huh7.5.1 HCVcc-Cre (HCVcc is cell-culture hepatitis C virus) infection, luciferase reporter, 44 h; activity change, negative = inhibition: at 41.8 µM (top of the series) unless noted
# In short: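 Infectious HCV cell culture screen: compound-treated cells (1,000/well, pre-plated 4 h) are infected with HCVcc-Cre at roughly 0.5 moi and grown 44 h. Infection is quantified by luciferase signal after 15 min substrate incubation at room temperature.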
# % is scaled to controls: 0 for no effect and ±100 for the full control effect; potency is read from the fitted curve at half-maximal effect; tags tell the direction and shape of the fitted curve.
SMILES,Potency,"activity change, negative = inhibition"
Cc1cc(-c2csc(Nc3ccccn3)n2)ccc1F,active: 6.31 µM,
Cc1nc(SCC(=O)Nc2nccs2)c(C#N)c(C)c1C,,inactive: -0.369%
CCN(CC)C(=O)N1c2ccccc2C=Cc2ccccc21,"inconclusive [inhibitor, partial curve, poor fit]",
O=C(N/N=C/c1cc(Cl)ccc1O)c1ccncc1,"inconclusive [inhibitor, single point]",
COc1ccccc1N1C(N)=NC(N)=NC1(C)C,,inactive: 1.85%
COc1ccc(Nc2ccccc2NC(=O)c2ccccc2Br)cc1,"inconclusive [inhibitor, partial curve]",
O=C(Nc1ccc(CN2CCCCC2)cc1)c1cc(Br)ccc1Cl,"inconclusive [inhibitor, single point]",
O=C(N/N=C1\CCCc2ccccc21)c1ccc([N+](=O)[O-])cc1,"inconclusive [inhibitor, single point]",
CC(C)(C)C(=O)NC(NC(=O)C(C)(C)C)c1ccc([N+](=O)[O-])cc1,,inactive: 26.6%
CC(=O)NN1C(=O)c2ccccc2NC1c1cccc([N+](=O)[O-])c1 (configuration not stated),,inactive: 42.2%
O=C(CN1C(=O)S/C(=C/c2ccc(N3CCOCC3)cc2)C1=O)N1CCOCC1,,inactive: -0.944%
CN(Cc1ccccc1F)C(=O)C(Cc1ccccc1)NC(=O)c1ccccc1 (configuration not stated),"inconclusive [inhibitor, single point]",
CCOc1ccccc1/C=C/c1onc(C)c1S(=O)(=O)N1CCC(C(=O)NC(C)C)CC1,"inconclusive [inhibitor, full curve]",
Cc1ccnc(NC(=O)c2cccc(S(=O)(=O)N3CCN(c4ccc(F)cc4)CC3)c2)c1,active: 10 µM,
COCCCNc1nc2c(-c3ccc(C)cc3)nnn2c2ccccc12,"inconclusive [inhibitor, partial curve]",
Nc1nonc1-n1nnc(C(=O)N/N=C/c2ccc(O)cc2)c1COc1ccc(F)cc1,,inactive: -9.11%
O=S(=O)(c1ccc(OCC(O)CNCc2ccco2)c(Cl)c1)N1CCOCC1 (configuration not stated),,inactive: -1.01%
Cc1cccc(Oc2cc(NC(=O)c3ccccc3)cc([N+](=O)[O-])c2)c1,"inconclusive [inhibitor, full curve]",
Cc1ccc(CSCC2Nc3ccc(C(=O)N4CCN(c5ccc(F)cc5)CC4)cc3NC2=O)cc1 (configuration not stated),"inconclusive [inhibitor, single point]",
CCOC(=O)c1ccc(NC(=S)N(CCCN2CCCC2)Cc2ccco2)cc1,active: 10 µM,
COc1ccc(Cc2cc(-c3ccc(F)cc3)n[nH]c2=O)cc1,"inconclusive [inhibitor, single point]",
O=C(NCc1cccs1)C1CC(c2ccc(F)cc2)=NO1 (configuration not stated),,inactive: 13.4%
C[C@H]1CN([C@@H](C)CO)C(=O)Cc2cc(NS(C)(=O)=O)ccc2O[C@@H]1CN(C)Cc1ccc(Cl)c(Cl)c1,"inconclusive [inhibitor, single point]",
CN(CC(=O)O)c1ccc(C(F)(F)F)cc1[N+](=O)[O-],,inactive: -0.801%

SMILES,Potency,"activity change, negative = inhibition"
O=C1c2cc([N+](=O)[O-])ccc2-c2cc(Br)c(N=C(NO)C(F)(F)F)cc21,"inconclusive [inhibitor, single point]",
Nc1nnc(SCC(=O)Nc2cccc(S(=O)(=O)N3CCCCC3)c2)s1,"inconclusive [inhibitor, single point]",
Cc1csc2nc(SCC(=O)N3CCN(c4ccccc4)CC3)[nH]c(=O)c12,,inactive: 1.9%
CSc1ccccc1NS(=O)(=O)c1ccc2c(c1)OCCO2,,inactive: -10.1%
COc1ccc(NC(=O)/C=C/c2ccccc2[N+](=O)[O-])c(OC)c1,"inconclusive [inhibitor, partial curve]",
COC(=O)c1c(NC(=O)c2c(C)noc2C)sc2c1CCCCCC2,,inactive: 12.8%
CCSc1nc(C2CC2)cc(-c2cccs2)c1C#N,active: 7.94 µM,
CCOC(=O)C(Cc1ccc(NC(C)=O)cc1)N1C(=O)c2ccccc2C1=O (configuration not stated),,inactive: -6.55%
O=C(CCN1C(=O)/C(=C/c2ccccc2Cl)SC1=S)NC1CCCC1,"inconclusive [inhibitor, partial curve]",
COc1ccccc1N1CCN(C(=O)c2ccc(-c3nc4ccccc4s3)o2)CC1,"inconclusive [inhibitor, single point]",
CC1(C)NC(=O)N(CCOCCOc2ccc3ccccc3c2Br)C1=O,"inconclusive [inhibitor, single point]",
Cc1ccc(NC2=NCC(=O)N2C2CCCC2)cc1C,,inactive: -6.33%
O=c1c(S(=O)(=O)c2ccc(Cl)cc2)cn(Cc2ccccc2)c2ccc(F)cc12,,inactive: -20.4%
COC(=O)c1ccccc1NC(=O)c1ccc(COc2cc(C)cc(C)c2)o1,,inactive: 12.3%
CCn1c(N2CCN(S(=O)(=O)c3ccc(OC)cc3)CC2)nc2ccccc21,active: 10 µM,
CC1CCN(CCCOc2ccc(OCc3ccccc3)cc2)CC1,"inconclusive [inhibitor, partial curve]",
Cc1cccc(OCCCC(=O)Nc2ccc(Cl)c(S(=O)(=O)N3CCOCC3)c2)c1,active: 7.94 µM,
CN(C(=O)c1ccc(NC(=O)Cc2ccc(NC(=O)C3CCCN(C(=O)C4CCCCC4)C3)cc2)cc1)C1CC1 (configuration not stated),"inconclusive [inhibitor, single point]",
COc1ccccc1N1CCN(C(=O)c2cc(-c3ccc(C)cc3)on2)CC1,"inconclusive [inhibitor, partial curve, poor fit]",
O=C(COc1ccc(Cl)cc1Cl)NC(=O)N1CCOCC1,,inactive: 22%
COCCCNCCOCCOc1ccc(C)cc1Br,"inconclusive [inhibitor, single point]",
CC(=O)N/C(=C\c1ccccc1)C(=O)OCc1cccc(S(=O)(=O)N(C)C)c1,"inconclusive [inhibitor, partial curve]",
COc1ccc(Cc2noc(CN(C)Cc3ccc(-n4cccn4)cc3)n2)cc1OC,"inconclusive [inhibitor, single point]",
